Experimental data taken from the supplement of paper PMC12632987.
The full ranking holds about 4,500 sequences; the median of “median log2 fold change of GCK-ALFA target abundance (FLAG IP / Myc IP barcode read proportion)” is about 0.078, and the lowest 2% start at about -0.6. This is one part of the list.

B1: GBRAP_186_5366 (protein)
chain: SEEAEKKIEEIIDEAAKEGWLILGVLEVEELTEESLERIKRELEAGAEFSAEFGYKVAVIIKTTVSEEEFEKLKKKVEEEKKRLEKETGADIKVTIIHEE
B2: GBRAP_160_4167 (protein)
chain: MEKLEKAKKEIKEIFKEAIEEMKGQTAENRANIMRVAFGEIILLLEEEGLLTDEVEEKLDEIEEEVVATILANPDLTDEELAELVKKAEEELFKALEESY
B3: GBRAP_184_5361 (protein)
chain: EIKHLFLEAETKEEVEKKLKEAREKIKKEGKPTVLYLELKNADLETVETAARLLKELKEEGLIEDAIIDVLDEKDEEEADKFIEVADKYGVRLVIALKDE
B4: GBRAP_74_6560 (protein)
chain: SEEKIKEIKEVAKTKSIKEFAEYILENIDELDEEALLVAAKEMLKKVKEEKDTLTEEELEAVAEAAAALADKAFTEDSSRETLKAMNELIAAVVELEKKA
B5: GBRAP_160_4628 (protein)
chain: SEKLEKALKLIDEAAEFVKSMIPEVTTEQFAHGFEAEFGSVILYLEEEGLISEETADKMMEVVDETRAYLLANPDLTDEERRALVDEARKKMKEIVKEDY
B6: GBRAP_160_4206 (protein)
chain: SEKIEKIIKDLREETEEVIELIPEESVEEVANAADVEIGSVLLEAEELGEENEEILDTIDKARDEIVKILLENKDASPEELAKKMREVTEKAIEEIKKIA
B7: GBRAP_150_3910 (protein)
chain: DLETLLTIVDTAIDLLEAILDGEYSLLPHALKVLKIAVEEAKEEEKELLELAKKALEKVEKAEKLLKEGGKKEEIDKEIKEALELAEKLRKLIEKKIKEK
B8: GBRAP_35_5567 (protein)
chain: SFDETTAEMMVNTIEALTEAVEDIDPETLKTITEQITKAAKKVIEEIKDNKEALEKIKKALEKLLKALEKRGLDDPNVKAAAEAVKEAIKEAEKAIKEAE
B9: GBRAP_11_2614 (protein)
chain: KKKALEEAAKLAKELAEVVKKLIEEGVDNEELLKEAEKLLKELEKLVKEKLDKAHQTDVEVMKELWKKMKEDPENAEEYAKQLLAAAEVLEGNYLLDIEE
B10: GBRAP_128_3254 (protein)
chain: MNPEVEKYAIEAVEKIKNSNKEEAQKIADEFFEWLKESSLEDAEQAVEVVEKRLKELSAEKLDILADAARKHLSKFSPEKANLVAGLEVEALNEAEEKEE
B11: GBRAP_160_4157 (protein)
chain: SEEVEKLKKEINEIFEEMKEDIKGETIEQRRVIIAGYMGEIIMLLFESPVVSEEVVDLAVELEDELVETLKENPELTYEEIVKLIDEVKEKILEAIKKSA
B12: GBRAP_150_3907 (protein)
chain: DLETALTIAETLIDILEAILEGEFELLPHAVKLAEALLEEAKEISEEIEKLARELLELLKKAEKLLKEGGPKEEIKKLVKEALELARKIEKLLEEKIKEE
B13: GBRAP_11_2712 (protein)
chain: NKEKLEEFAKKAEELAKKIEKLIKEGPKEEELKKLAEEAKKLAEEAKAAGLPQSIVDLLKLTAELLKEAIKDPENVVKYLKEAAAAARVAAGQLLLEAEE
B14: GBRAP_184_5365 (protein)
chain: EVEVRAVDASTEEEVEEKLKEAREEIKASGKPTTLVLFLENADLETVEKGMELLKELKDEGLIERAIVVLDDERTEEEVDKLVELADKYGVDLVVALEDE
B15: GBRAP_52_6287 (protein)
chain: SEEEVERTAREILELIRAGDLEGALALAREFVEKASLEEVLRLGELLIERSAELPPERLDAAFEVIDAIAEGIEERFGKEEEADILLARAAAAIHAALQA
B16: GBRAP_160_4127 (protein)
chain: NEEALKTLKDNAADLEATLKEIETLTPAQAATLATVTLYQAALDMDELDGKFKELEDAAVAAADDIRATAATDPAATKAVSKEKLTAAAKAFKDAAKKLE
B17: GBRAP_52_6007 (protein)
chain: MREEIRKVLEEALELVKEGKEEEAKKLLLELVKSLNEEELELLVEELAELAAEAPLEDADAVWKLAELLAEALEEAGADEALADEALARAAAALYAREQA
B18: GBRAP_128_3463 (protein)
chain: STEEAVAWARETLERIKEADLAEARALFEELAARLATLSLEEVEAVVEEIEKELPKLTAEKLEILAEVLAAARPRFDPEKRALVAEVESEALLLAEEKEE
B19: GBRAP_160_4179 (protein)
chain: SETVEEAEKEINEIFDEAIEMVKGETAENRANIVRVAFGEILLLLEEKGLLTDELGEKIREIEDRVVNTILENPDLTDEELEALLNKAREEILKALRESS

Molecular target: GABARAP, O95166
Sequence (O95166 whole entry, the tested form may be a part): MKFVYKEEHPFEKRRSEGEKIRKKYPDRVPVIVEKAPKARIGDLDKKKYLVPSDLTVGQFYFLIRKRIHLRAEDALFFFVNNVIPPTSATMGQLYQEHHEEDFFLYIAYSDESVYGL
Test: median log2 fold change of GCK-ALFA target abundance (FLAG IP / Myc IP barcode read proportion) (log2 ratio); each designed protein is fused to an ALFA-tag nanobody in HEK293 cells to bring the named protein to FLAG-tagged glucokinase (GCK); Myc marks an untargeted standard; higher = target protein stabilised (more abundant)
Conditions: target protein: 3xFLAG-MCP-GCK-ALFA reporter; HEK293 landing pad (RPLP)
In short: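 Binders fused to an ALFA nanobody were recombined as a library into HEK293 landing-pad cells, which were induced with 2 μg mL^−1 doxycycline and then transfected to express a FLAG-tagged target and a Myc-tagged standard. After 48 h, circular RNA barcodes recovered by anti-FLAG and anti-Myc immunoprecipitation of lysates were reverse transcribed, amplified and sequenced. Each binder's target abundance is the median log2 ratio of FLAG to Myc barcode read proportions, from barcodes present at ≥10^−7 in both replicates, binders carrying ≥3 barcodes per replicate, a 10^−6 pseudocount and pooled replicates.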

Binder | median log2 fold change
B1 | 0.0165
B2 | -0.157
B3 | -0.0794
B4 | 0.0878
B5 | -0.0549
B6 | 0.0288
B7 | 0.0177
B8 | 0.378
B9 | 0.237
B10 | 0.604
B11 | 0.0459
B12 | 0.0415
B13 | 0.086
B14 | 0.163
B15 | -0.0575
B16 | 0.00207
B17 | -0.00404
B18 | 0.238
B19 | -0.14
